Consider one molecule from US20250049939A1, “NOVEL FLT3 ANTIBODIES AND ANTIBODY-DRUG-CONJUGATES BASED THEREON, THERAPEUTIC METHODS AND USES THEREOF IN COMBINATION WITH TYROSINE KINASE INHIBITORS” (TUBULIS GmbH, priority 2021, published 2025).

One assay concerns the target T1, CSF1R (Homo sapiens, UniProt P07333).
T1 construct: expressed in transfected cells; host or cells: Ba/F3 cells stably expressing pMIY construct
Kind of assay: Cell surface binding to Ba/F3 FLT3 homologue CSF1R. The following applies: homologue panel. The procedure: (§1) For FLT3 expression analysis, cells were stained on ice with primary mouse anti-FLT3-AF647 antibodies for 30 min. For antibody binding studies, cells were stained on ice with chimeric (20D9) or humanized anti-FLT3 antibodies (in house) or IgG1 control with or without Leu234Ala/Leu235Ala (LALA)-mutation in the Fc region and secondary antibody goat F(ab′)2 Anti-Human IgG-AF647 (2042-31) purchased from Southern Biotech for 30 min, respectively. Binding and expression were subsequently measured at the flow cytometer (BD FACSCanto II) and the results were evaluated with FlowJo version 10.8.1.

The target in assay [1] is T2, human wildtype FLT3 (hFLT3 wt) (Homo sapiens, UniProt P36888).
T2 construct: expressed in transfected cells; host or cells: Ba/F3 cells, retrovirally transduced with MSCV-IRES-YFP (pMIY) vector
T2 sequence (P36888 27-993): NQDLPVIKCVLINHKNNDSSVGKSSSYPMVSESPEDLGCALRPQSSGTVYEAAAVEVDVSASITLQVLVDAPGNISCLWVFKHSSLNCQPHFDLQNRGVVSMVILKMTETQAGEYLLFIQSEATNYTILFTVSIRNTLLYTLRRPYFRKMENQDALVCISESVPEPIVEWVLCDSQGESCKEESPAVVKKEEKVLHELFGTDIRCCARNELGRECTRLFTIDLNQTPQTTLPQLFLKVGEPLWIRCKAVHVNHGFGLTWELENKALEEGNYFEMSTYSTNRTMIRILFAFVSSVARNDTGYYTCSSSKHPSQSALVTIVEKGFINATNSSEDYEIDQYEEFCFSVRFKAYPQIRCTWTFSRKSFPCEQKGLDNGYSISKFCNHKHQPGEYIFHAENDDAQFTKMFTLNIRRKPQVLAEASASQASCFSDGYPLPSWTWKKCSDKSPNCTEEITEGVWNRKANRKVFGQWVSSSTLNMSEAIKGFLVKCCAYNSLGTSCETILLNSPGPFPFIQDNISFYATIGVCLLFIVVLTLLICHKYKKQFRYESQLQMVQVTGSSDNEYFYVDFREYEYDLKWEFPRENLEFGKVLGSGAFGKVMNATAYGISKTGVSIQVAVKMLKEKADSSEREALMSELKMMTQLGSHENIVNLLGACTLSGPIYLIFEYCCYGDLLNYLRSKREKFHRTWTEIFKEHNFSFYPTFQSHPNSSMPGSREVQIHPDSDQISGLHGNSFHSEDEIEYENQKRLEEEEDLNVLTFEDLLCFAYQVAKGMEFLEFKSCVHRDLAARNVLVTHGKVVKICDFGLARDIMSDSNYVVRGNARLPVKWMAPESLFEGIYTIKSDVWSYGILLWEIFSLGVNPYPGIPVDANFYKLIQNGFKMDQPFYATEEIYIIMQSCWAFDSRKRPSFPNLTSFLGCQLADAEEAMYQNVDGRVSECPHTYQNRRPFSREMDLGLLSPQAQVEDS
In words: Cell surface binding to Ba/F3 hFLT3 wt, flow cytometry. As to conditions: orthologue panel. The procedure: (§2) For antibody binding studies, cells were stained on ice with primary mouse, rat or human anti-FLT3 antibodies (in house) and secondary antibody Goat F(ab′)2 Anti-Human Ig-PE (2012-09), Goat Anti-Mouse IgG (H+L)-PE (1032-09) or Goat Anti-Rat IgG (H+L)-PE (3052-09) purchased from Southern Biotech. For internalization experiments, cells incubated with anti-FLT3 antibodies were washed and incubated for 30 min at 4° C. or 37° C. followed by staining with secondary antibody.
as §1
On the technique in general: Flow cytometry measures light scatter and fluorescence of single cells or particles in a stream.

A further assay deals with cynomolgus monkey FLT3. Kind of assay: Cell surface binding to Ba/F3 cynoFLT3, flow cytometry. As to conditions: orthologue panel. The procedure:
as §2
(§3) Murine FLT3 (OMu21985D, Genescript), human CD64 (RC207487), CD32 (RC205786) and CD16 (RC206429), were purchased from Origene. Cynomolgues monkey FLT3 gene was synthesized from XM_015439107.1 by Eurofins. The constructs were cloned into retroviral expression vector MSCV-IRES-YFP (pMIY) using the In-Fusion HD Cloning Plus Kit (Takara Bio, Saint-Germain-en-Laye, France). All FLT3 point mutations were generated using the QuikChange II XL Site-Directed Mutagenesis Kit (Agilent Technologies, Santa Clara, CA, USA) and correct sequence was confirmed by Sanger sequencing. […]
(§4) For FLT3 expression analysis, cells were stained on ice with primary mouse anti-FLT3-AF647 antibodies for 30 min. […] Binding and expression were subsequently measured at the flow cytometer (BD FACSCanto II) and the results were evaluated with FlowJo version 10.8.1.

A further assay addresses T3, PDGFRα (Homo sapiens, UniProt P16234).
T3 construct: expressed in transfected cells; host or cells: Ba/F3 cells stably expressing pMIY construct
In words: Cell surface binding to Ba/F3 FLT3 homologue PDGFRα. The following applies: homologue panel. The procedure: as §1

In the next assay the target is T4, VEGFR-2 (Homo sapiens, UniProt P35968).
T4 construct: expressed in transfected cells; host or cells: Ba/F3 cells stably expressing pMIY construct
T4 sequence (P35968 20-1356, species assumed): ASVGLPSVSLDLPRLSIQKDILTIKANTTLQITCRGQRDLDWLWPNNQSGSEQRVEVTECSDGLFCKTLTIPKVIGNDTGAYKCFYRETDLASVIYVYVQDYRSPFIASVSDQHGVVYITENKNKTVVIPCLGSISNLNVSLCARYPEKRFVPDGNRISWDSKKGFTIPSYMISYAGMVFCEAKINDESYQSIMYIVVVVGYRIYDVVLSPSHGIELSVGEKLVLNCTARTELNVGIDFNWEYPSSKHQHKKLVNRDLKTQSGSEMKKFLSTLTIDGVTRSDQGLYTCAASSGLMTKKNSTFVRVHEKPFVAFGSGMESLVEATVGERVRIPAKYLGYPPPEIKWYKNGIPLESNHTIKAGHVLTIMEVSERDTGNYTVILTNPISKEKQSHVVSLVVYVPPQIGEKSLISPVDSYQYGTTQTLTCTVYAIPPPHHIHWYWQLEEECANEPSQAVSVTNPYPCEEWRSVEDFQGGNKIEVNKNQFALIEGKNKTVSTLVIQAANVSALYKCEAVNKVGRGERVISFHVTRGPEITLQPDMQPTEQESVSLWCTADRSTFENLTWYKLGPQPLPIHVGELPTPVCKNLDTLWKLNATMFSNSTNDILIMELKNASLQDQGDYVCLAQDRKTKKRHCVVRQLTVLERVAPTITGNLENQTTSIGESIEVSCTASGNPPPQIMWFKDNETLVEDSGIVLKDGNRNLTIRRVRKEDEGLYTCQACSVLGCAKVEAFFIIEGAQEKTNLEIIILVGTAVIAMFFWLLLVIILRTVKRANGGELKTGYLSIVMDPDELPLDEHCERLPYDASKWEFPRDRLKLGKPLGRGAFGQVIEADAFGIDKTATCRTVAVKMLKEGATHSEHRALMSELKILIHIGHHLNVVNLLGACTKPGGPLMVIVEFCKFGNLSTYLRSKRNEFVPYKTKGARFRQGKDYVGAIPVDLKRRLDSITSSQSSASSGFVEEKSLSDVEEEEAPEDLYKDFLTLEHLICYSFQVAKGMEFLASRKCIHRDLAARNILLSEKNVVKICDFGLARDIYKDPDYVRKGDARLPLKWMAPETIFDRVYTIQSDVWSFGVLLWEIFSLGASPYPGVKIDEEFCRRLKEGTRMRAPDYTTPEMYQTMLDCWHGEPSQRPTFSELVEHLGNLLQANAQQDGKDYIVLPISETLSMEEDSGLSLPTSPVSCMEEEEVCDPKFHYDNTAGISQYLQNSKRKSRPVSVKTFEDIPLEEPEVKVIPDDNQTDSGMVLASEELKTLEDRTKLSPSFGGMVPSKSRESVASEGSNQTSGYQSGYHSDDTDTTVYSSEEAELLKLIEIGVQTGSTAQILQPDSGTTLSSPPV
In words: Cell surface binding to Ba/F3 FLT3 homologue VEGFR-2. As to conditions: homologue panel. The procedure:
as §1

The target of the next assay is T5, c-KIT (Homo sapiens, UniProt P10721).
T5 construct: expressed in transfected cells; host or cells: Ba/F3 cells stably expressing pMIY construct
T5 sequence (P10721 26-976): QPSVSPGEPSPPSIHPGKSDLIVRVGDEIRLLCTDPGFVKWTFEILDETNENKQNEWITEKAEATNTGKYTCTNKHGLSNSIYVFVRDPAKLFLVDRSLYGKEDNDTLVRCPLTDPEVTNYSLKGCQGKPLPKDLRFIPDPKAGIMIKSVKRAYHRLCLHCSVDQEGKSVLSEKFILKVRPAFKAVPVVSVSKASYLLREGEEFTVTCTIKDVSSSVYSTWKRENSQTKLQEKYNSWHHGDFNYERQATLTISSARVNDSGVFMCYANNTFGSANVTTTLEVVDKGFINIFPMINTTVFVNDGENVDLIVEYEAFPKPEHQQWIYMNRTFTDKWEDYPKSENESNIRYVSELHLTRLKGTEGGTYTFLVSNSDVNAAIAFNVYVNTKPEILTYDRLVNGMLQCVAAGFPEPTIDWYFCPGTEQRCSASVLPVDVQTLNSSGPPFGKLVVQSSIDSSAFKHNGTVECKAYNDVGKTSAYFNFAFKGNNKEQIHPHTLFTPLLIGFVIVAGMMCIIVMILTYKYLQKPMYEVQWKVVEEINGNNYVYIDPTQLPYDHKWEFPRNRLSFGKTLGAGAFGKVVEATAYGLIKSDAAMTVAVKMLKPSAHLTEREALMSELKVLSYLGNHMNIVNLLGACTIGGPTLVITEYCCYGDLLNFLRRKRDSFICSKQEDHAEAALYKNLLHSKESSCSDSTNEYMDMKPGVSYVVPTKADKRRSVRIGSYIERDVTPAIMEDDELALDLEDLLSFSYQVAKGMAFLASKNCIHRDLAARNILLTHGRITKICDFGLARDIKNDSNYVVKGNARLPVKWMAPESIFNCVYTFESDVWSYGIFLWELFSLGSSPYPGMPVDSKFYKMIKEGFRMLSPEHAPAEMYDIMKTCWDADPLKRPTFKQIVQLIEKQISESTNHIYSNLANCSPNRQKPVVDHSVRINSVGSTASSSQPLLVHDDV
In words: Cell surface binding to Ba/F3 FLT3 homologue c-KIT. As to conditions: homologue panel. The procedure:
as §1

Another assay concerns rat FLT3. Kind of assay: Cell surface binding to Ba/F3 ratFLT3, flow cytometry. As to conditions: orthologue panel. The procedure: as §1
In a further assay the target is T6, murine FLT3 (Mus musculus, UniProt Q00342).
T6 construct: host or cells: Ba/F3 cells, retrovirally transduced with MSCV-IRES-YFP (pMIY) vector
T6 sequence (Q00342 28-1000): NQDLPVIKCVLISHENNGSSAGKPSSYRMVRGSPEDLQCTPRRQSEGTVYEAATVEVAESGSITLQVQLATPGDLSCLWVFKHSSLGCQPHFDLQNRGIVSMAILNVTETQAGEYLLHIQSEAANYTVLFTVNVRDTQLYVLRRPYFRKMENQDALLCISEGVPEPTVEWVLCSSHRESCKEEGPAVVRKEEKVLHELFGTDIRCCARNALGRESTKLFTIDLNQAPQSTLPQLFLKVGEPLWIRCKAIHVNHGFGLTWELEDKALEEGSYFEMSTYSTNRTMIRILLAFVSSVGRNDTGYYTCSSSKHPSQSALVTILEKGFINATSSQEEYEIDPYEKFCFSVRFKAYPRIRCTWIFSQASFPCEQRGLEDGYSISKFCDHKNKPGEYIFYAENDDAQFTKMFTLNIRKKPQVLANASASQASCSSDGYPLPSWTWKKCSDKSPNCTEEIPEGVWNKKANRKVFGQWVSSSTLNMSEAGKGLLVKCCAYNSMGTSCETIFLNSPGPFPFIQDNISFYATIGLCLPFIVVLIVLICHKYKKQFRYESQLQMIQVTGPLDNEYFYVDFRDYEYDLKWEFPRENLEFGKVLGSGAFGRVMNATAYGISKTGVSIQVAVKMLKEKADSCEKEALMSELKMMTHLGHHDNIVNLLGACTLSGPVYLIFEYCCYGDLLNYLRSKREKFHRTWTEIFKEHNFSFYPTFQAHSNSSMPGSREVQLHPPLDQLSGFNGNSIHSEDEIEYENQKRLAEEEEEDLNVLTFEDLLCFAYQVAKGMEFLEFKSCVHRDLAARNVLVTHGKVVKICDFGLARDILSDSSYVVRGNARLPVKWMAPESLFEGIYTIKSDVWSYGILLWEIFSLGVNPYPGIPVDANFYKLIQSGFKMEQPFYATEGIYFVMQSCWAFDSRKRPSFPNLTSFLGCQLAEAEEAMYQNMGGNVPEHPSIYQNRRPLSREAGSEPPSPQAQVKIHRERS
Kind of assay: Cell surface binding to Ba/F3 mFLT3, flow cytometry. The following applies: orthologue panel. The procedure:
as §2, §3, §4

T1 sequence (P07333 20-972, species assumed): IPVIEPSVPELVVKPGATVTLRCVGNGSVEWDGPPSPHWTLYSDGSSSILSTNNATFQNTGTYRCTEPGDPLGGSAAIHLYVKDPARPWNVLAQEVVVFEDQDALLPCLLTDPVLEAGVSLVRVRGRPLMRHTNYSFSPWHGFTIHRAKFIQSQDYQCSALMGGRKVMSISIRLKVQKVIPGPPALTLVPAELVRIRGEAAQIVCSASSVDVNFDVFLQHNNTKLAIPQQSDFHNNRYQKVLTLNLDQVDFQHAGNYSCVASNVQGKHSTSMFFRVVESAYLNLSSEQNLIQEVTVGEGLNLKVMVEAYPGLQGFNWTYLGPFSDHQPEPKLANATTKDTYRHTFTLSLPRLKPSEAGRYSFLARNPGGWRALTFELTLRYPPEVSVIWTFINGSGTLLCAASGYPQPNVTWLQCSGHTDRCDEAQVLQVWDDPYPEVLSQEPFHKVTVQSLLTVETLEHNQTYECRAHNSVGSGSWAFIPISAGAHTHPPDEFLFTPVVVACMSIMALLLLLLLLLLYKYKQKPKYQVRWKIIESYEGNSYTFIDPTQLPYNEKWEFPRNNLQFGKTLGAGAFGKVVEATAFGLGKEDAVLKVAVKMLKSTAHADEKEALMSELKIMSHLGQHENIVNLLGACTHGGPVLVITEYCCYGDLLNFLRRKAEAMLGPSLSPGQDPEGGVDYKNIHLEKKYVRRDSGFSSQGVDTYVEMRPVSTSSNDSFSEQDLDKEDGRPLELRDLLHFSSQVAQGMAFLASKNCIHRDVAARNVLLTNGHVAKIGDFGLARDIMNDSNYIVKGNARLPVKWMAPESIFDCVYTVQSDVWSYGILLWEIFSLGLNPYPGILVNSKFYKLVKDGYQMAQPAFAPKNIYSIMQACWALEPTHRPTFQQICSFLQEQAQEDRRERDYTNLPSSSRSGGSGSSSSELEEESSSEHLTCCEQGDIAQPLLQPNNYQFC
T3 sequence (P16234 24-1089, species assumed): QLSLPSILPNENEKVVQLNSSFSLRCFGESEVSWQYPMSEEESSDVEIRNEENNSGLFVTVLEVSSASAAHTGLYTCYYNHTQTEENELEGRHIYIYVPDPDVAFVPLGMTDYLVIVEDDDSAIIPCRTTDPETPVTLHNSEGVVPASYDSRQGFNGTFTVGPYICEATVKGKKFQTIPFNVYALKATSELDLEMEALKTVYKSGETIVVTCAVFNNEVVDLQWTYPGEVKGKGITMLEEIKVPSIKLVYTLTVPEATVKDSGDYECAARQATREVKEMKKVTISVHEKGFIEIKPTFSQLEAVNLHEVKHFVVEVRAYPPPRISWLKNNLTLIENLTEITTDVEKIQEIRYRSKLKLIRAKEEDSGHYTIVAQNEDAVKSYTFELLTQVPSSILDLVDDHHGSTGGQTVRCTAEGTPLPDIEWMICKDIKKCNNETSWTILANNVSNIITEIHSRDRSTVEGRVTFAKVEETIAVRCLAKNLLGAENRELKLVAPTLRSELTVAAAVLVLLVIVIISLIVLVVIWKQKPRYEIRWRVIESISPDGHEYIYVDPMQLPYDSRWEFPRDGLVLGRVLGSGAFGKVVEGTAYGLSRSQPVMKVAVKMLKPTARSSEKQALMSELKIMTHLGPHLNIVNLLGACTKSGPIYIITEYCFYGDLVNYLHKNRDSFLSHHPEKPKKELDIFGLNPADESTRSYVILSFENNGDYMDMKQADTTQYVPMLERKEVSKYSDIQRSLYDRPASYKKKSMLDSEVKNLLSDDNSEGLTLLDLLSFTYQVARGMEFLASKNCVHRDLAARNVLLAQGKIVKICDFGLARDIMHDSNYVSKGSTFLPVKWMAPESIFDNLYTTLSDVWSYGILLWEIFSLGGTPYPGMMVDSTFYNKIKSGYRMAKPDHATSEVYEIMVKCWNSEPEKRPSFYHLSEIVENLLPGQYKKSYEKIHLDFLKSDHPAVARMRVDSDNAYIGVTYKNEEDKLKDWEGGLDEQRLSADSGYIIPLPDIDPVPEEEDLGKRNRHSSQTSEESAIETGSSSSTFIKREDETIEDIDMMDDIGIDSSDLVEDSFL

B1: #3: humanized clone 3 of 20D9 (VH3 + VK1), lead candidate; heavy chain SEQ ID NO: 83, light chain SEQ ID NO: 88 (antibody)
heavy: QVQLVESGGGVVQPGRSLRLSCAASGFTFNNYWMTWVRQAPGKGLEWIASITKTGGGTYYADSVKGRFTISRDNSKNTLYLQMNSLRAEDTAVYYCTTLQQLGVMDAWGQGTLVTVSS[human IgG1 constant region left out]
light: DIQMTQSPSVLSASVGDRVTINCRASQNINKELNWYQQKLGEAPKLLIYNTNNLQSGVPSRFSGSGSGTDYTLTISSLQPEDVATYFCFQHKSWPLTFGSGTKLEIKRTVAAPSVFIFPPSDEQLKSGTASVVCLLNNFYPREAKVQWKVDNALQSGNSQESVTEQDSKDSTYSLSSTLTLSKADYEKHKVYACEVTHQGLSSPVTKSFNRGEC
modifications: Humanized clone 3 of 20D9, heavy chain sequence without a signalpeptide; Humanized clone 3 of 20D9, light chain sequence without a signalpeptide
As to B1, the “Binding to CSF1R” value with CSF1R is reported as “does not bind”. Besides, the “Binding to human FLT3” value in assay [1] was “exclusively binds to FLT3 from human and cynomolgous monkey”. For the same molecule, the “Binding to cynomolgous monkey FLT3” value in the assay with cynomolgus monkey FLT3 is “exclusively binds to FLT3 from human and cynomolgous monkey”. For the same molecule, in the assay with PDGFRα, the “Binding to PDGFRα” value was “does not bind”. For the same molecule, in the assay with VEGFR-2, the “Binding to VEGFR-2” value is “does not bind”. Further, in the assay with c-KIT, the “Binding to c-KIT” value is listed as “does not bind”. Moreover, the “Binding to rat FLT3” value with rat FLT3 was “does not bind”. The “Binding to mouse FLT3” value in the assay with murine FLT3 was “does not bind”.
